Reference: PubChem BioAssay AID686978 (National Center for Advancing Translational Sciences (NCATS), 2013)
About 64,000 (15%) of roughly 420,000 compounds were called active. The shares of active, inactive and inconclusive entries below differ from those in the screen. The call rests on the fitted dose curve; in most records, active means well fitted inhibition curve with a large enough effect; inconclusive means small, poorly fitted or top-dose-only effect; inactive means flat fitted curve, though single readings scatter. No potency is given beside an inconclusive call; the fits are too rough.

assay: qHTS for Inhibitors of human tyrosyl-DNA phosphodiesterase 1 (TDP1): qHTS in cells in absence of CPT; details: DT40 Tdp1-/- hTDP1 cells, no CPT, ATP luminescence, 48 h; series mostly up to 46.2 µM; further: nearly all actives have a fitted effect of over 55% in size
In short: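 Compound effects on proliferation are scored in DT40 Tdp1-/-;hTDP1 cells in the absence of CPT. ATP levels (CellTiter-Glo luminescence) are recorded after a ≥48 hr, 37 °C incubation.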
Potency means the concentration at half of the fitted maximal effect; tags describe the fitted curve by direction and shape.

**Q.** For COc1cccc(N2CCN(S(=O)(=O)c3ccc4nc(-c5ccccc5)[nH]c4c3)CC2)c1, which Potency is on record?
**A.** inconclusive [inhibitor, full curve, poor fit]

**Q.** For Cc1ccc(NC(=O)Cn2c(-c3cncs3)nc3ccccc32)cc1Br, which Potency is on record?
**A.** inconclusive [inhibitor, single point]

**Q.** With C/C(=C\C(=O)c1ccccc1)NNC(=O)c1ccc(Cl)cc1 as the compound, how does the Potency read?
**A.** inconclusive [inhibitor, single point]

**Q.** With CC(C)NC(=O)NC(=O)CSc1nnc(COc2ccccc2F)n1C(C)C1CC2CCC1C2 (centres undefined) as the compound, how does the Potency read?
**A.** active: 10 µM

**Q.** Which Potency does the source give for Cc1ccc[n+](CC(=O)Nc2c(Cl)cc(Cl)cc2Cl)c1 here?
**A.** inactive

**Q.** For CN(C)N1C(N)=C(C#N)C(c2cccnc2)C2=C1CCCC2=O (centres undefined), which Potency is on record?
**A.** inactive

**Q.** For COc1ccc(Cl)cc1NC(=O)N1CC(=O)Nc2sc3c(c2C1c1ccccc1)CCCC3 (centres undefined), which Potency is on record?
**A.** inconclusive [inhibitor, single point]

**Q.** With Cc1cc(C)cc(NC(=O)COC(=O)C2CC3C=CC2C3)c1 (centres undefined) as the compound, how does the Potency read?
**A.** inactive

**Q.** Which Potency does the source give for N#CC1c2ccccc2-c2ccccc2N1C(=O)c1ccccc1 (centres undefined) here?
**A.** active: 5.8 µM

**Q.** Which Potency does the source give for Cc1ccc(C(=O)N2CCCC(CCC(=O)N3CCN(c4ccccn4)CC3)C2)cc1C (centres undefined) here?
**A.** inconclusive [inhibitor, partial curve]

**Q.** Which Potency does the source give for CCN(CC)C(=O)CSc1nc2ccccc2c(=O)n1Cc1ccco1 here?
**A.** inconclusive [inhibitor, single point]

**Q.** With Clc1cc(/C=N\NC2=NCCN2)cc(Cl)n1 as the compound, how does the Potency read?
**A.** inconclusive [inhibitor, single point]

**Q.** Which Potency does the source give for COc1ccccc1N1CCN(CCCCOc2cccc3ccccc23)CC1 here?
**A.** active: 9.2 µM

**Q.** For Cc1ncc2c(c1CNS(=O)(=O)N(C)C)CCN(C(=O)c1[nH]c3ccc(Cl)cc3c1C)C2, which Potency is on record?
**A.** inconclusive [inhibitor, single point]

**Q.** Which Potency does the source give for CC(C)(C)C(=O)N1NC(=Nc2ccccc2)SC1(C)C here?
**A.** active: 20.6 µM

**Q.** With CCn1cc(C(=O)NCCc2ccccc2)c(=O)c2cc(F)c(N3CCN(C)CC3)cc21 as the compound, how does the Potency read?
**A.** inconclusive [inhibitor, single point]

**Q.** Which Potency does the source give for CCN(c1ccc(NC(=O)CSc2ccc3c(c2)OCCO3)cc1)C(C)C here?
**A.** inconclusive [inhibitor, single point]

**Q.** Which Potency does the source give for C[C@H](CO)N1C[C@H](C)[C@H](CN(C)C(=O)Nc2ccc(C(F)(F)F)cc2)Oc2ncc(-c3cccnc3)cc2C1=O here?
**A.** inconclusive [inhibitor, single point]

**Q.** With Cn1nc(C(C)(C)C)cc1C(=O)NNC(=O)c1cccc(Cl)c1 as the compound, how does the Potency read?
**A.** inconclusive [inhibitor, single point]
